Results: the supplement of paper PMC8728848
Some of the results follow.

Experiments:
Assay in all cases: glycan array binding signal (z-score within array); higher = stronger binding
Conditions in all cases: glycan notation: IUPAC condensed, linker removed
[1] = biological target: Neu5Ac(a2-3)Gal(b1-3)GalNAc(b1-3)Gal(a1-4)Gal(b1-4)Glc
In short: (§1)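 The binding signal is a Z-score computed within each array. Data were drawn from 3228 arrays in the Consortium for Functional Glycomics database, restricted to those with a known protein sequence. Scores were averaged over arrays of the same protein sequence at different concentrations or buffers, and over linkers, and negative values can be taken as non-binding.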

[2] = biological target: Neu5Ac(a2-3)Gal(b1-3)GalNAc(b1-4)[Neu5Ac(a2-3)]Gal(b1-4)Glc
In short: as §1

[3] = biological target: Neu5Ac(a2-3)Gal(b1-3)GalNAc(b1-4)[Neu5Ac(a2-8)Neu5Ac(a2-3)]Gal(b1-4)Glc
In short: as §1

[4] = biological target: Neu5Ac(a2-3)Gal(b1-3)GalNAc6S
In short: as §1

[5] = biological target: Neu5Ac(a2-3)Gal(b1-3)GlcNAc
In short: as §1

[6] = biological target: Neu5Ac(a2-3)Gal(b1-3)GlcNAc(b1-2)Man
In short: as §1

[7] = biological target: Neu5Ac(a2-3)Gal(b1-3)GlcNAc(b1-2)Man(a1-3)[GlcNAc(b1-4)][Neu5Ac(a2-3)Gal(b1-3)GlcNAc(b1-2)Man(a1-6)]Man(b1-4)GlcNAc(b1-4)GlcNAc
In short: as §1

[8] = biological target: Neu5Ac(a2-3)Gal(b1-3)GlcNAc(b1-2)Man(a1-3)[Neu5Ac(a2-3)Gal(b1-3)GlcNAc(b1-2)Man(a1-6)]Man(b1-4)GlcNAc(b1-4)GlcNAc
In short: as §1

[9] = biological target: Neu5Ac(a2-3)Gal(b1-3)GlcNAc(b1-3)Gal(b1-3)GlcNAc
In short: as §1

[10] = biological target: Neu5Ac(a2-3)Gal(b1-3)GlcNAc(b1-3)Gal(b1-4)GlcNAc
In short: as §1

[11] = biological target: Neu5Ac(a2-3)Gal(b1-3)GlcNAc(b1-3)GalNAc
In short: as §1

[12] = biological target: Neu5Ac(a2-3)Gal(b1-3)GlcNAc(b1-4)Gal(b1-4)Glc
In short: as §1

[13] = biological target: Neu5Ac(a2-3)Gal(b1-3)GlcNAc(b1-6)GalNAc
In short: as §1

[14] = biological target: Neu5Ac(a2-3)Gal(b1-3)GlcNAc6S
In short: as §1

[15] = biological target: Neu5Ac(a2-3)Gal(b1-3)[Fuc(a1-4)]GlcNAc
In short: as §1

[16] = biological target: Neu5Ac(a2-3)Gal(b1-3)[Fuc(a1-4)]GlcNAc(b1-3)Gal(b1-3)[Fuc(a1-4)]GlcNAc
In short: as §1

[17] = biological target: Neu5Ac(a2-3)Gal(b1-3)[Fuc(a1-4)]GlcNAc(b1-3)Gal(b1-4)[Fuc(a1-3)]GlcNAc
In short: as §1

[18] = biological target: Neu5Ac(a2-3)Gal(b1-3)[GlcNAc(b1-6)]GalNAc
In short: as §1

[19] = biological target: Neu5Ac(a2-3)Gal(b1-3)[Neu5Ac(a2-3)Gal(b1-4)]GlcNAc
In short: as §1

[20] = biological target: Neu5Ac(a2-3)Gal(b1-3)[Neu5Ac(a2-6)]GalNAc
In short: as §1

[21] = biological target: Neu5Ac(a2-3)Gal(b1-3)[Neu5Ac(a2-6)]GlcNAc(b1-3)[Fuc(a1-3)[Gal(b1-4)]GlcNAc(b1-6)]Gal(b1-4)Glc
In short: as §1

[22] = biological target: Neu5Ac(a2-3)Gal(b1-3)]Neu5Ac(a2-3)Gal(b1-4)]GlcNAc
In short: as §1

[23] = biological target: Neu5Ac(a2-3)Gal(b1-4)Glc
In short: as §1

[24] = biological target: Neu5Ac(a2-3)Gal(b1-4)GlcNAc
In short: as §1

[25] = biological target: Neu5Ac(a2-3)Gal(b1-4)GlcNAc(b1-2)Man
In short: as §1

[26] = biological target: Neu5Ac(a2-3)Gal(b1-4)GlcNAc(b1-2)Man(a1-3)[GlcNAc(b1-2)Man(b1-4)GlcNAc(b1-2)Man(a1-6)]Man(b1-4)GlcNAc(b1-4)GlcNAc
In short: as §1

[27] = biological target: Neu5Ac(a2-3)Gal(b1-4)GlcNAc(b1-2)Man(a1-3)[GlcNAc(b1-4)][Neu5Ac(a2-3)Gal(b1-4)GlcNAc(b1-2)Man(a1-6)]Man(b1-4)GlcNAc(b1-4)GlcNAc
In short: as §1

[28] = biological target: Neu5Ac(a2-3)Gal(b1-4)GlcNAc(b1-2)Man(a1-3)[Neu5Ac(a2-3)Gal(b1-4)GlcNAc(b1-2)Man(a1-6)]Man(b1-4)GlcNAc(b1-4)GlcNAc
In short: as §1

[29] = biological target: Neu5Ac(a2-3)Gal(b1-4)GlcNAc(b1-2)Man(a1-3)[Neu5Ac(a2-3)Gal(b1-4)GlcNAc(b1-2)Man(a1-6)]Man(b1-4)GlcNAc(b1-4)[Fuc(a1-6)]GlcNAc
In short: as §1

[30] = biological target: Neu5Ac(a2-3)Gal(b1-4)GlcNAc(b1-2)Man(a1-3)[Neu5Ac(a2-6)Gal(b1-4)GlcNAc(b1-2)Man(a1-6)]Man(b1-4)GlcNAc(b1-4)GlcNAc
In short: as §1

[31] = biological target: Neu5Ac(a2-3)Gal(b1-4)GlcNAc(b1-2)[Neu5Ac(a2-3)Gal(b1-4)GlcNAc(b1-4)]Man(a1-3)[GlcNAc(b1-4)][Neu5Ac(a2-3)Gal(b1-4)GlcNAc(b1-2)[Neu5Ac(a2-3)Gal(b1-4)GlcNAc(b1-6)]Man(a1-6)]Man(b1-4)GlcNAc(b1-4)GlcNAc
In short: as §1

[32] = biological target: Neu5Ac(a2-3)Gal(b1-4)GlcNAc(b1-2)[Neu5Ac(a2-3)Gal(b1-4)GlcNAc(b1-4)]Man(a1-3)[GlcNAc(b1-4)][Neu5Ac(a2-3)Gal(b1-4)GlcNAc(b1-4)Man(a1-6)]Man(b1-4)GlcNAc(b1-4)GlcNAc
In short: as §1

[33] = biological target: Neu5Ac(a2-3)Gal(b1-4)GlcNAc(b1-2)[Neu5Ac(a2-3)Gal(b1-4)GlcNAc(b1-6)]Man(a1-6)[Neu5Ac(a2-3)Gal(b1-4)GlcNAc(b1-2)Man(a1-3)]Man(b1-4)GlcNAc(b1-4)GlcNAc
In short: as §1

[34] = biological target: Neu5Ac(a2-3)Gal(b1-4)GlcNAc(b1-2)[Neu5Ac(a2-3)Gal(b1-4)GlcNAc(b1-6)]Man(a1-6)[Neu5Ac(a2-3)Gal(b1-4)GlcNAc(b1-2)Man(a1-3)][GlcNAc(b1-4)]Man(b1-4)GlcNAc(b1-4)GlcNAc
In short: as §1

[35] = biological target: Neu5Ac(a2-3)Gal(b1-4)GlcNAc(b1-3)Gal
In short: as §1

[36] = biological target: Neu5Ac(a2-3)Gal(b1-4)GlcNAc(b1-3)Gal(b1-3)GlcNAc
In short: as §1

[37] = biological target: Neu5Ac(a2-3)Gal(b1-4)GlcNAc(b1-3)Gal(b1-4)GlcNAc
In short: as §1

[38] = biological target: Neu5Ac(a2-3)Gal(b1-4)GlcNAc(b1-3)Gal(b1-4)GlcNAc(b1-2)Man(a1-3)[Neu5Ac(a2-3)Gal(b1-4)GlcNAc(b1-3)Gal(b1-4)GlcNAc(b1-2)Man(a1-6)]Man(b1-4)GlcNAc(b1-4)GlcNAc
In short: as §1

[39] = biological target: Neu5Ac(a2-3)Gal(b1-4)GlcNAc(b1-3)Gal(b1-4)GlcNAc(b1-3)Gal(b1-4)GlcNAc
In short: as §1

[40] = biological target: Neu5Ac(a2-3)Gal(b1-4)GlcNAc(b1-3)Gal(b1-4)GlcNAc(b1-3)Gal(b1-4)GlcNAc(b1-2)Man(a1-3)[Neu5Ac(a2-3)Gal(b1-4)GlcNAc(b1-3)Gal(b1-4)GlcNAc(b1-3)Gal(b1-4)GlcNAc(b1-2)Man(a1-6)]GalNAc
In short: as §1

[41] = biological target: Neu5Ac(a2-3)Gal(b1-4)GlcNAc(b1-3)Gal(b1-4)GlcNAc(b1-3)GalNAc
In short: as §1

[42] = biological target: Neu5Ac(a2-3)Gal(b1-4)GlcNAc(b1-3)Gal(b1-4)GlcNAc(b1-3)[Neu5Ac(a2-3)Gal(b1-4)GlcNAc(b1-3)Gal(b1-4)GlcNAc(b1-6)]GalNAc
In short: as §1

[43] = biological target: Neu5Ac(a2-3)Gal(b1-4)GlcNAc(b1-3)Gal(b1-4)GlcNAc(b1-6)[Gal(b1-3)]GalNAc
In short: as §1

[44] = biological target: Neu5Ac(a2-3)Gal(b1-4)GlcNAc(b1-3)Gal(b1-4)[Fuc(a1-3)]GlcNAc
In short: as §1

[45] = biological target: Neu5Ac(a2-3)Gal(b1-4)GlcNAc(b1-3)GalNAc
In short: as §1

B1: Nictaba (Nicotiana tabacum), Q94EW1 (protein)
chain: MQGQWIAARDLSITWVDNPQYWTWKTVDPNIEVAELRRVAWLDIYGKIETKNLIRKTSYAVYLVFKLTDNPRELERATASLRFVNEVAEGAGIEGTTVFISKKKKLPGELGRFPHLRSDGWLEIKLGEFFNNLGEDGEVEMRLMEINDKTWKSGIIVKGFDIRPN
Q: Which “glycan array binding signal (z-score)” value [1] does the source give for B1 here?
A: Its value is -0.219.

Q: And the “glycan array binding signal (z-score)” value [2]?
A: Its value is -0.234.

Q: What about the “glycan array binding signal (z-score)” value [3] of the same binder?
A: The value was -0.222.

Q: And the “glycan array binding signal (z-score)” value [4]?
A: Its value is -0.281.

Q: What about the “glycan array binding signal (z-score)” value [5] of the same binder?
A: The value was -0.251.

Q: And the “glycan array binding signal (z-score)” value [6]?
A: Its value is -0.197.

Q: And the “glycan array binding signal (z-score)” value [7]?
A: Its value is -0.379.

Q: What about the “glycan array binding signal (z-score)” value [8] of the same binder?
A: The value was -0.294.

Q: What about the “glycan array binding signal (z-score)” value [9] of the same binder?
A: The value was -0.225.

Q: What about the “glycan array binding signal (z-score)” value [10] of the same binder?
A: Its value is -0.267.

Q: And the “glycan array binding signal (z-score)” value [11]?
A: The value was -0.295.

Q: What about the “glycan array binding signal (z-score)” value [12] of the same binder?
A: Its value is -0.387.

Q: And the “glycan array binding signal (z-score)” value [13]?
A: The value was -0.39.

Q: And the “glycan array binding signal (z-score)” value [14]?
A: The value was -0.25.

Q: What about the “glycan array binding signal (z-score)” value [15] of the same binder?
A: Its value is -0.284.

Q: And the “glycan array binding signal (z-score)” value [16]?
A: Its value is -0.277.

Q: What about the “glycan array binding signal (z-score)” value [17] of the same binder?
A: The value was -0.268.

Q: What about the “glycan array binding signal (z-score)” value [18] of the same binder?
A: The value was -0.389.

Q: What about the “glycan array binding signal (z-score)” value [19] of the same binder?
A: The value was -0.271.

Q: What about the “glycan array binding signal (z-score)” value [20] of the same binder?
A: Its value is -0.286.

Q: And the “glycan array binding signal (z-score)” value [21]?
A: The value was -0.39.

Q: And the “glycan array binding signal (z-score)” value [22]?
A: The value was -0.388.

Q: And the “glycan array binding signal (z-score)” value [23]?
A: The value was -0.278.

Q: And the “glycan array binding signal (z-score)” value [24]?
A: The value was -0.189.

Q: What about the “glycan array binding signal (z-score)” value [25] of the same binder?
A: The value was -0.381.

Q: And the “glycan array binding signal (z-score)” value [26]?
A: The value was 0.257.

Q: And the “glycan array binding signal (z-score)” value [27]?
A: Its value is -0.37.

Q: What about the “glycan array binding signal (z-score)” value [28] of the same binder?
A: Its value is 1.23.

Q: What about the “glycan array binding signal (z-score)” value [29] of the same binder?
A: Its value is 1.7.

Q: And the “glycan array binding signal (z-score)” value [30]?
A: The value was 0.039.

Q: What about the “glycan array binding signal (z-score)” value [31] of the same binder?
A: Its value is -0.386.

Q: What about the “glycan array binding signal (z-score)” value [32] of the same binder?
A: The value was -0.383.

Q: And the “glycan array binding signal (z-score)” value [33]?
A: Its value is -0.33.

Q: And the “glycan array binding signal (z-score)” value [34]?
A: Its value is -0.384.

Q: And the “glycan array binding signal (z-score)” value [35]?
A: The value was -0.217.

Q: And the “glycan array binding signal (z-score)” value [36]?
A: The value was -0.252.

Q: And the “glycan array binding signal (z-score)” value [37]?
A: Its value is -0.247.

Q: What about the “glycan array binding signal (z-score)” value [38] of the same binder?
A: The value was 0.597.

Q: What about the “glycan array binding signal (z-score)” value [39] of the same binder?
A: Its value is -0.162.

Q: What about the “glycan array binding signal (z-score)” value [40] of the same binder?
A: The value was -0.255.

Q: And the “glycan array binding signal (z-score)” value [41]?
A: Its value is -0.388.

Q: What about the “glycan array binding signal (z-score)” value [42] of the same binder?
A: The value was -0.386.

Q: What about the “glycan array binding signal (z-score)” value [43] of the same binder?
A: The value was -0.389.

Q: And the “glycan array binding signal (z-score)” value [44]?
A: The value was -0.261.

Q: What about the “glycan array binding signal (z-score)” value [45] of the same binder?
A: The value was -0.308.
